# The source gives no read counts; variants with many changes may rest on few reads.
# B1: LINE1-mini (parent)
# chain: GGCAGAGCUCAACACAGCGUGGCAAAGUGGCUGUGGCUAGACUGCC
# Variants of: B1
# Assay: self-cleavage, relative activity (ratio to wild type); higher = more cleavage; in vitro, sequencing; the parent is a self-cleaving ribozyme
row,Variant,self-cleavage
1,C10G G19C U28G G29U,0.01
2,C10U A11U C45U,0.12
3,C10G C13A G29A,0.02
4,C10G A12C U32A G33C U38G,0
5,C10U A11C A26G,0
6,C10U C15A U20A G33C A41C,0.02
7,C10G C15U G29A,0.29
8,C10G U20A A25G G29C,0.03
9,C10G A25G U32C G33A,0.01
10,C10G G27U G44C,0.14
11,C10G G19A G36A,0.02
12,C10G G19A A24C G33C,0.04
13,C10G G33C C46G,0.01
14,C10U A39G G44A C45A,0.06
15,C10G G17A G27A C42U,0.02
16,C10G A24G U43G,0
17,C10U A11C C45A,0.01
18,C10G C18U A26U C46G,0.03
19,C10G C18A A26C,0.04
20,C10G C13U A26G G40A G44A,0
21,C10G G30A G44C,0.03
22,C10G A12G G22A C31U G35A,0.01
23,C10G A12G U28C G29C C42U,0
24,C10U A16G U20A,0.06

row,Variant,self-cleavage
1,C10G U20G U32C,0.08
2,C10G U20A C37U,0.02
3,C10U A12C A41G,0.01
4,C10G C31A U38G,0.01
5,C10U A11G A12G C46A,0
6,C10G U20A G22U,0.06
7,C10G A24C U43C,0.02
8,C10G U20C U32A U34G,0.01
9,C10G C13U G22U,0.02
10,C10G U20C C37U A41U,0
11,C10G A12U A39G,0.02
12,C10G A25U A26U G35A U38C,0.01
13,C10G G17U G30U U32G,0.04
14,C10U C15G G35U,0.04
15,C10G A41U C45A,0.02
16,C10G A14C G22C G40A,0.01
17,C10U C13A G29U U43C,0.02
18,C10G G29U G30A,0.48
19,C10U A16U C46A,0.13
20,C10G G19C U28A C42A,0.01
21,C10U A12U A25C,0.07
22,C10U A12U A25G,0.11
23,C10U C13A U38A G40U A41C,0.06
24,C10U A26U C37A,0.02

row,Variant,self-cleavage
1,C10G G17C G27A G33C,0.03
2,C10U A11G G36A,0.01
3,C10U C15A U20A A25C C45A,0.02
4,C10G C13G G19C C31U,0.02
5,C10G A16C A26C,0.02
6,C10G A26C C46A,0.04
7,C10U A12C A25G U43A,0
8,C10G G33A G44A,0.01
9,C10U C13A C23U G44U,0.02
10,C10G G17C U43G,0.01
11,C10U A26U C31G G35U,0.02
12,C10U A26G C37A,0.05
13,C10G G27C C45A,0
14,C10G C13G G30U A39C,0.01
15,C10G C13U U20G A24U C37A,0
16,C10U A11U U20A G40U,0
17,C10U A12U C45G,0.02
18,C10U C13G G17C C45A,0.02
19,C10G G30A U43A C45G,0.02
20,C10G A25C C37G A39G,0.01
21,C10U A24G G27U U32C,0.03
22,C10G A25U A39G,0.02
23,C10G C23A G29C C31A U32C,0.01
24,C10G G17U G29A G33U,0.03

row,Variant,self-cleavage
1,C10G C13U G22C A26G U28A G44A,0
2,C10U A14G C31G,0.02
3,C10U C13G G22A C31U G36A A39U G44U C45A,0
4,C10G U32G C46A,0.04
5,C10G G19A A25C A41U,0.02
6,C10G G30U G33C,0.01
7,C10G A16C G22C C23U,0.04
8,C10G A16U A25U G35U,0.03
9,C10G A25U G40A C42U,0
10,C10G A24G C45A,0.03
11,C10U A14G G30U,0.15
12,C10U C13U G30U,0.07
13,C10G G21A A24C G44U,0.01
14,C10U C15A A16G G19A,0.07
15,C10U A14C G19A C31G,0.01
16,C10U A24G G40A,0.01
17,C10G C15A A16G C45A C46A,0.01
18,C10G C15A G17A G30U,0.01
19,C10G G44C C46U,0.03
20,C10G C23G A41G,0
21,C10U C13U C18A G22C C23A C31A U38C,0.03
22,C10G C15G U28A G30C C42U,0.01
23,C10G C13A C18U G27A,0.01
24,C10U C13A G22U,0.02

row,Variant,self-cleavage
1,C10U A24G G29U U34G,1.01
2,C10G C15U G29C G33U C45G C46U,0.01
3,C10U C13G G36C A41C,0.01
4,C10U C15A G40A A41U,0.02
5,C10G G22A C23A A25G,0.08
6,C10G A24C U38A,0.04
7,C10U A16U A24G,1.43
8,C10G G30C G40U,0.01
9,C10U C15A C45U,0.05
10,C10U A12C C15G,0
11,C10U C13G U28C,0.11
12,C10U A12G C23A U32A U34C,0.02
13,C10U C13A G19C U20A,0.04
14,C10G G17A G30A C45G,0.03
15,C10G G17U A24C A26C,0.04
16,C10G C15G A26C U32G G36A C45A,0.01
17,C10G A14C G36C,0.01
18,C10G A12C G19A C37G,0
19,C10G G17A C23U G30C G33A C46G,0.02
20,C10U A11U U28G,0.26
21,C10G U28G A39G C42A,0
22,C10U A12C C23G C46U,0.01
23,C10G G21C U28C C31U G44U,0.02
24,C10G A16G G19U G22C G27A,0.02

row,Variant,self-cleavage
1,C10G U20A G35C U43C C45G,0.02
2,C10U A16C U20C C23A U32C,0.03
3,C10G C23A A39G,0.01
4,C10G G30U G36A G40U,0.02
5,C10G A24G G40U,0
6,C10U A14G A25U C31A A41U,0.02
7,C10G G30A C31A,0.04
8,C10U C13A G19U A26G G35A,0.01
9,C10G C15U C31U C45U,0.04
10,C10U A14G G22C,0.12
11,C10G C18G G22U G27U U28C C31U G36C,0.01
12,C10G A25C C42U,0.02
13,C10G G21U A25C,0.03
14,C10G C18A G36C,0.03
15,C10U C13G C42A,0.01
16,C10G C15G A24U A25C A39U,0.03
17,C10G A12U C18U,0.01
18,C10G A26C C31G G44U,0
19,C10U A12G G22U A41U,0.02
20,C10G C13U C31U,0.03
21,C10U C15U G19U U20C G21U,0.03
22,C10G C13G A14U G40U,0
23,C10G U20A A24G G36U A39U,0.02
24,C10U A14G C18U G36A A41G C45G,0.03

row,Variant,self-cleavage
1,C10G A24U G35U,0
2,C10G C18A G27U G36C U38C,0.01
3,C10U A14C G21U,0.04
4,C10G G35A C45A,0.04
5,C10G U34G C45G,0.01
6,C10G U34A C45G,0.01
7,C10U A25U G33A,0.04
8,C10U A14C C45G,0.06
9,C10G G17U G30U C31A C46U,0.12
10,C10U C13U G19A G35U,0.06
11,C10G C18U G44A,0.06
12,C10G A24G G30C,0.07
13,C10U C15U U20C,0.31
14,C10G C37A U38G G44U,0.01
15,C10G C13G G19C A24U C31A U32G G35U U38C,0
16,C10U A11U C13A A24G,0.04
17,C10G A12U C15A C23G A26U A39G,0.01
18,C10U A11G C13G G22U G30U,0.01
19,C10G G17C U28A U32C,0.01
20,C10U A12G G17A C23A G29A,0.03
21,C10U A12C U28C C37A,0.01
22,C10U C15G A24G C42U,0.01
23,C10G C13A G22C,0.03
